In the supplement of paper PMC10369915:
The list shows a part of the results. No stated cut-off is given here; in the data, active = 3.2 or more and inactive = the rest. Only a few entries rise above the background.

B1: CTRB2_Y246 (peptide)
chain: TTPAVYARVAK
B2: CTSC_Y150_I153T (peptide)
chain: ASENVYVNTAH
B3: CTSC_Y345_Y340C (peptide)
chain: CYSSEYHYVGG
B4: CTSC_Y345_Y340C_YF (peptide)
chain: CFSSEYHFVGG
B5: CTSC_Y345_Y347C_YF (peptide)
chain: FFSSEYHCVGG
B6: CTSC_Y345_YF (peptide)
chain: FFSSEYHFVGG
B7: CTSC_Y352 (peptide)
chain: YVGGFYGGCNE
B8: CTSD_Y232_F229I (peptide)
chain: NIISFYLSRDP
B9: CTSK_Y121_R122P (peptide)
chain: PDSVDYPKKGY
B10: CTSK_Y121_R122P_YF (peptide)
chain: PDSVDYPKKGF
B11: CUX2_Y1470_V1472L (peptide)
chain: LNNIIYRLERA
B12: CXADR_Y318_S323R (peptide)
chain: YSKTQYNQVPR
B13: CYB5R3_Y130 (peptide)
chain: GKMSQYLESMQ
B14: CYB5R3_Y130_S128P (peptide)
chain: GKMPQYLESMQ
B15: CYBA_Y87 (peptide)
chain: PFTRNYYVRAV
B16: CYBA_Y87_R90W (peptide)
chain: PFTRNYYVWAV
B17: CYBA_Y88 (peptide)
chain: FTRNYYVRAVL
B18: CYBA_Y88_R90Q (peptide)
chain: FTRNYYVQAVL
B19: CYBA_Y88_R90Q_YF (peptide)
chain: FTRNFYVQAVL

Molecular target: SHP2 C-SH2 domain E139D
Assay: enrichment score (SH2-bound / input frequency) (ratio); bacterial display of known human phosphotyrosine sites (pTyr-Var adds point mutants) read by sequencing; higher = stronger binding; tyrosines were phosphorylated by kinases first
Conditions: peptide library: pTyr-Var
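Further: displayed peptides selected on beads carrying the immobilized SH2 domain, with library peptides lacking any tyrosine serving as negative controls.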

Binder	enrichment score
B1	inactive: 0.522
B2	inactive: 1.77
B3	inactive: 1.17
B4	inactive: 1.07
B5	inactive: 1.12
B6	inactive: 1.79
B7	inactive: 0.973
B8	active: 3.21
B9	inactive: 0.466
B10	inactive: 0.318
B11	inactive: 1.48
B12	inactive: 0.707
B13	inactive: 0.84
B14	inactive: 0.882
B15	inactive: 0.533
B16	inactive: 2.03
B17	inactive: 1.12
B18	inactive: 1.22
B19	inactive: 1.28

Molecular target: SHP2 C-SH2 domain wild-type
Assay: as above
Conditions: peptide library: pTyr-Var

Binder	enrichment score
B1	inactive: 0.914
B2	inactive: 1.6
B3	inactive: 1.29
B4	inactive: 1.06
B5	inactive: 1.45
B6	inactive: 1.56
B7	inactive: 0.702
B8	active: 3.42
B9	inactive: 0.43
B10	inactive: 0.442
B11	inactive: 1.31
B12	inactive: 0.655
B13	inactive: 0.565
B14	inactive: 0.686
B15	inactive: 0.799
B16	inactive: 2.03
B17	inactive: 1.42
B18	inactive: 1.26
B19	inactive: 1.56

Molecular target: SHP2 N-SH2 domain L43F
Assay: as above
Conditions: peptide library: pTyr-Var

Binder	enrichment score
B1	inactive: 0.691
B2	inactive: 1.47
B3	inactive: 1.07
B4	inactive: 0.962
B5	inactive: 1.08
B6	inactive: 2.07
B7	inactive: 0.773
B8	inactive: 2.79
B9	inactive: 0.595
B10	inactive: 0.591
B11	inactive: 2.14
B12	inactive: 0.602
B13	inactive: 0.79
B14	inactive: 0.878
B15	inactive: 0.532
B16	inactive: 1.85
B17	inactive: 1.17
B18	inactive: 1.14
B19	inactive: 1.83

Molecular target: SHP2 N-SH2 domain T42A
Assay: as above
Conditions: peptide library: pTyr-Var

Binder	enrichment score
B1	inactive: 0.692
B2	inactive: 2.01
B3	inactive: 0.869
B4	inactive: 0.831
B5	inactive: 0.854
B6	inactive: 2.07
B7	inactive: 0.843
B8	inactive: 2.95
B9	inactive: 0.489
B10	inactive: 0.411
B11	inactive: 1.21
B12	inactive: 0.497
B13	inactive: 0.79
B14	inactive: 0.795
B15	inactive: 0.568
B16	inactive: 1.84
B17	inactive: 1.12
B18	inactive: 1.1
B19	inactive: 1.1

Molecular target: SHP2 N-SH2 domain T52S
Assay: as above
Conditions: peptide library: pTyr-Var

Binder	enrichment score
B1	inactive: 0.572
B2	inactive: 1.98
B3	inactive: 0.851
B4	inactive: 0.843
B5	inactive: 0.951
B6	inactive: 1.85
B7	inactive: 0.791
B8	active: 3.3
B9	inactive: 0.411
B10	inactive: 0.536
B11	inactive: 1.78
B12	inactive: 0.642
B13	inactive: 0.769
B14	inactive: 0.959
B15	inactive: 0.483
B16	inactive: 1.93
B17	inactive: 0.912
B18	inactive: 1.16
B19	inactive: 1.21

Molecular target: SHP2 N-SH2 domain wild-type
Assay: as above
Conditions: peptide library: pTyr-Var

Binder	enrichment score
B1	inactive: 0.518
B2	inactive: 1.74
B3	inactive: 1.64
B4	inactive: 1.19
B5	inactive: 1.03
B6	inactive: 1.38
B7	inactive: 0.946
B8	active: 3.3
B9	inactive: 0.464
B10	inactive: 0.68
B11	inactive: 1.11
B12	inactive: 0.573
B13	inactive: 0.671
B14	inactive: 0.965
B15	inactive: 0.574
B16	inactive: 1.49
B17	inactive: 1.23
B18	inactive: 1.17
B19	inactive: 1.59
